Results from the antibiotic and cytotoxicity screens of Wong et al. (2023).
The list shows a part of the results.

Tests used:
HSkMC = human skeletal muscle cells; assay: cytotoxicity call (relative viability < 0.9); settings: 10 µM
HepG2 = assay: cytotoxicity call (relative viability < 0.9); settings: 10 µM
S. aureus RN4220 = assay: growth inhibition call (relative growth <= 0.2); settings: 50 µM

Structure (SMILES)	cytotoxicity call (HSkMC)	cytotoxicity call (HepG2)	growth inhibition call (S. aureus RN4220)
C[C@@H]1CN([C@@H](C)CO)C(=O)c2cc(NC(=O)CCC(F)(F)F)ccc2O[C@H]1CN(C)C(=O)Nc1ccc(C(F)(F)F)cc1	inactive	inactive	inactive
CCOc1oc(C(=O)NC2CCCCC2)c(-c2ccc(Cl)cc2)c1S(=O)(=O)c1ccc(Cl)cc1	inactive	inactive	inactive
C[C@@H]1CN([C@@H](C)CO)C(=O)c2cccc(NS(=O)(=O)c3cn(C)cn3)c2O[C@@H]1CN(C)S(=O)(=O)c1ccc(Cl)cc1	inactive	inactive	inactive
CC(=O)C1CCN(C(C)=O)CC1	inactive	inactive	inactive
C[C@H](CO)N1C[C@H](C)[C@@H](CN(C)C(=O)Nc2cccc3ccccc23)Oc2ccc(NC(=O)Cc3ccccc3)cc2CC1=O	active	inactive	inactive
CC(C)CC#Cc1cnc2c(c1)C(=O)N([C@H](C)CO)C[C@H](C)[C@H](CN(C)S(=O)(=O)c1ccccc1)O2	inactive	inactive	inactive
C[C@H](CO)N1C[C@H](C)[C@@H](CN(C)C(=O)Nc2cccc3ccccc23)OCCCC[C@H](C)Oc2ccc(NC(=O)c3ccncc3)cc2C1=O	inactive	inactive	inactive
COc1ccc(S(=O)(=O)Nc2ccc3c(c2)C(=O)N([C@@H](C)CO)C[C@@H](C)[C@@H](CN(C)C(=O)Nc2ccc4c(c2)OCO4)OCCCC[C@H](C)O3)cc1	inactive	inactive	inactive
C[C@@H]1CN([C@@H](C)CO)C(=O)c2cc(NC(=O)CCCCCC(=O)Nc3ccccc3N)ccc2O[C@H]1CN(C)Cc1ccccc1	inactive	active	inactive
